The whole screen tested about 410,000 compounds, of which about 5,000 (1.2%) were called active. This list was built around the results that the source calls inconclusive (neither active nor inactive); the mix of calls is not that of the screen. The call rests on the fitted dose curve; in most records, active means well fitted inhibition curve with a large enough effect; inconclusive means small, poorly fitted or top-dose-only effect; inactive means no such curve, though single readings can be large or run the other way. Potencies of inconclusive entries are doubtful fits and often do not repeat.
Assay: qHTS for Inhibitors of TGF-b; further: nearly all actives have a fitted effect of over 65% in size
Details: HepG2 CAGA-GFP TGF-b/SMAD3 reporter, GFP fluorescence, 18 h, TGF-beta stimulated, 500 pg/mL final; series mostly up to 46.1 µM; activity, negative = inhibition: at the top concentration
Method in brief: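 HEPG2 CAGA-GFP cells (1000/well, DMEM with 1% FBS) were pre-incubated 2 h at 37 degrees C, given compound by pin tool, then stimulated with TGF-beta at 500 pg/mL final for 18 h before per-cell GFP fluorescence imaging.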
On the % scale 0 is the no-effect control and ±100 the full control effect; potency means the concentration at half of the fitted maximal effect; tags describe the fitted curve by direction and shape.

Compound	activity, negative = inhibition	Potency
COc1cccc(OC)c1NC(=O)Cn1nc(C)c2ccccc2c1=O	inactive: -0.522%	–
Cn1c(C(=O)N2CCc3ccccc3C2)cc2oc3ccccc3c21	–	inconclusive: 12.6 µM [inhibitor, partial curve, poor fit]
Cc1ccc(NC(=S)N/N=C/c2ccc([N+](=O)[O-])s2)cc1	–	inconclusive: 25.1 µM [inhibitor, single point]
O=C1N[C@H]2CC=C[C@H]2Nc2ccccc21	inactive: -1.9%	–
CCCN1CCC(N(C)CCc2ccc(OC)c(OC)c2)CC1	–	inconclusive: 35.5 µM [inhibitor, single point]
O=C(Cn1c(O)c(N=NC(=O)c2ccncc2)c2ccccc21)Nc1ccccc1	inactive: -20.3%	–
CN1OC[C@@H]2CN(Cc3ccc(Cl)cc3)[C@H](c3ccc(N4CCCCC4)cc3)C[C@@H]21	–	inconclusive: 22.4 µM [inhibitor, single point]
CC(=O)OCn1ncc(N2CCOCC2)c(Br)c1=O	inactive: -2.6%	–
CCN(Cc1nc2cc(Cl)ccc2c(=O)[nH]1)C(=O)c1cccc(NC(=O)c2cccs2)c1	–	inconclusive: 20 µM [inhibitor, single point]
COc1ccccc1NC(=O)C1=C(C)NC(=O)NC1c1ccc(C)s1 (configuration not stated)	–	inconclusive: 1 µM [inhibitor, full curve, poor fit]
CN(CC(=O)Nc1ccc(Cl)c(C(F)(F)F)c1)C(=O)c1ccc(OCC2CCCO2)cc1 (configuration not stated)	–	inconclusive: 15.8 µM [inhibitor, single point]
COc1ccc(N2CCN(CCCNC(=O)c3cc(Nc4ccccc4OC)nc4ccccc34)CC2)cc1	–	inconclusive: 12.6 µM [inhibitor, partial curve, poor fit]
COc1ccc2cc3c(N)nn(C(=O)c4ccc(Cl)c([N+](=O)[O-])c4)c3nc2c1	inactive: 2.68%	–
CC12CN(C(=O)c3ccc(Cl)cc3)C3(C#N)CC1CCC23C (configuration not stated)	inactive: 6.82%	–
COC(=O)C1=C(CCc2ccccc2)NC(=O)NC1c1ccc(Cl)cc1 (configuration not stated)	–	inconclusive: 35.5 µM [inhibitor, single point]
CC(=O)Nc1ccc2[nH]c(C)cc(=O)c2c1	inactive: -4.18%	–
CC(C)(C)C1CCC(OC(=O)CCC(=O)Nc2ccccc2)CC1 (configuration not stated)	–	inconclusive: 1.12 µM [inhibitor, full curve, poor fit]
CCOC(=O)c1c(S(=O)(=O)N2CCC(C(=O)NCc3ccccc3OC)CC2)c(C)n(C)c1C	inactive: -11.1%	–
NC(=O)CC(NC(=O)c1ccccc1)c1ccc(NCCc2ccc(Cl)cc2)c([N+](=O)[O-])c1 (configuration not stated)	–	inconclusive: 20 µM [inhibitor, partial curve, poor fit]
Cc1cc(C)cc(OCC(=O)N(Cc2ccc(Cl)cc2)CC2CCCO2)c1 (configuration not stated)	–	inconclusive: 14.1 µM [inhibitor, partial curve, poor fit]
CCc1ccc(CN2CCC(n3nccc3NC(=O)c3ccccc3Cl)CC2)cc1	–	inconclusive: 6.31 µM [inhibitor, single point]
CC(C)(C)Cc1c(-c2cccc(Cl)c2)nc2ccc(Br)cn12	inactive: -11.6%	–
O=C(Cc1ccccc1F)N1CCC(c2nc3c(nnn3Cc3ccc(F)cc3)c(=O)[nH]2)CC1	–	inconclusive: 6.31 µM [inhibitor, single point]

Compound	activity, negative = inhibition	Potency
O=C(NCc1cccnc1)NC1(C(F)(F)F)Oc2ccc(Cl)cc2O1 (configuration not stated)	–	inconclusive: 35.5 µM [inhibitor, single point]
O=C(Cc1ccc(S(=O)(=O)N2CCOCC2)s1)Nc1ccc(Br)c(C(F)(F)F)c1	–	inconclusive: 22.4 µM [inhibitor, single point]
Nc1nc(SCc2cccnc2)c2ncn(C3OC(CO)C(O)C3O)c2n1 (configuration not stated)	inactive: -1.94%	–
Brc1cnc2ccccc2c1N1CCCCC1	–	inconclusive: 12.6 µM [inhibitor, single point]
NC(=O)C(C(=O)/C=C/c1ccc(Cl)cc1)=C1SCCS1	–	inconclusive: 35.5 µM [inhibitor, single point]
COc1ccccc1NS(=O)(=O)c1cc(NC(=O)C2CCCC2)ccc1N1CCOCC1	–	inconclusive: 14.1 µM [inhibitor, single point]
c1cc2c(cc1C1CCCCC1)c1c3n2CCN=C3CCC1	–	inconclusive: 28.2 µM [inhibitor, single point]
COc1ccc(-c2sc3ccccc3c2/C=C/c2ccncc2)cc1	–	inconclusive: 25.1 µM [inhibitor, single point]
CC(C)Cc1nnc(NC(=O)CN2C(=O)NC3(CC(C)CC(C)(C)C3)C2=O)s1 (configuration not stated)	inactive: 8.85%	–
COc1ccccc1NC(=O)CNC(=O)CC12CC3CC(CC(C3)C1)C2	inactive: -11.9%	–
Cc1cccc(Cc2nnc(NC(=O)c3cccc(S(=O)(=O)N4CCOCC4)c3)s2)c1	–	inconclusive: 35.5 µM [inhibitor, single point]
CCOc1ccc(-c2nc(SCC(=O)NCCCOC)c(-c3ccccc3)[nH]2)cc1	–	inconclusive: 25.1 µM [inhibitor, single point]
COc1ccc(NC(=O)Nc2c[nH]c(=O)[nH]c2=O)c(OC)c1	inactive: 0.53%	–
COc1cccc(NC(=O)CCNS(=O)(=O)c2cccc3nsnc23)c1	–	inconclusive: 2.82 µM [inhibitor, partial curve, poor fit]
CCN(C[C@H]1N[C@@](C)(C(=O)OC)[C@H]2C(=O)N(C)C(=O)[C@@H]12)S(=O)(=O)c1ccc(OC(F)(F)F)cc1	–	inconclusive: 31.6 µM [inhibitor, single point]
COc1ccc(S(=O)(=O)N2CCCC(C(=O)Nc3cccnc3)C2)cc1Cl (configuration not stated)	inactive: 0%	–
O=C(NCCCn1ccnc1)C1CCN(S(=O)(=O)c2cc([N+](=O)[O-])ccc2Cl)CC1	–	inconclusive: 11.2 µM [inhibitor, single point]
Cc1ccc(S(=O)(=O)NC(C)(C)CSc2nnc(Nc3ccccc3)s2)cc1	–	inconclusive: 22.4 µM [inhibitor, single point]
CCc1ccc(NC(=O)C2=CC(c3ccc4c(c3)OCO4)=NS(=O)(=O)N2C)cc1	–	inconclusive: 22.4 µM [inhibitor, single point]
Cc1onc(-c2c(Cl)cccc2Cl)c1-c1nc2cc(Cl)ccc2c(=O)o1	–	inconclusive: 35.5 µM [inhibitor, single point]
COc1cccc(C(N)c2nc(-c3csc4ccccc34)cs2)c1 (configuration not stated)	–	inconclusive: 35.5 µM [inhibitor, single point]
CCn1ccnc1CN(C)C(=O)c1cc(COc2c(F)cccc2F)on1	–	inconclusive: 5.62 µM [inhibitor, single point]
Cc1cccnc1Nc1nc(-c2ccc(O)cc2)cs1	–	inconclusive: 20 µM [inhibitor, single point]

Compound	activity, negative = inhibition	Potency
CCOc1ccc(N(CC(=O)N2CCOCC2)S(=O)(=O)c2ccc(Cl)cc2)cc1	inactive: 4.45%	–
CCOC(=O)c1ccc(S(=O)(=O)N2CCN(CCc3ccncc3)CC2)cc1	inactive: -12.4%	–
COc1cccc(CNC(=O)COCc2cc(-c3ccc4c(c3)OCO4)on2)c1	–	inconclusive: 12.6 µM [inhibitor, single point]
COc1cc(C(=O)OCc2cc(=O)n3nc(C(C)C)sc3n2)cc(OC)c1OC	–	inconclusive: 6.31 µM [inhibitor, single point]
CCCCNc1c(-c2ccc(SC3CCCCC3)c(OC)c2)nc2ccc(C)cn12	–	inconclusive: 22.4 µM [inhibitor, single point]
CC(C)C(=O)Nc1cc(S(=O)(=O)Nc2cccc(Cl)c2)ccc1Cl	–	inconclusive: 11.2 µM [inhibitor, partial curve]
O=C(NCCCN1CCOCC1)c1cc(-c2ccc(Cl)cc2)on1	–	inconclusive: 5.01 µM [inhibitor, full curve, poor fit]
O=C(Nc1ccc(Cl)c(Cl)c1)Nc1nnc(CSc2ccccc2)s1	–	inconclusive: 0.562 µM [inhibitor, full curve, poor fit]
COC(=O)CC(NC(=O)C1CC1)c1ccc2c(c1)OCO2 (configuration not stated)	inactive: -1.07%	–
CN1C(=O)C2C=CC1C1C(=O)N(c3ccccc3)C(=O)C21 (configuration not stated)	–	inconclusive: 35.5 µM [inhibitor, single point]
O=C(N/N=C/c1ccccn1)c1cccc(NC(=O)c2ccc(Cl)cc2)c1	–	inconclusive: 22.4 µM [inhibitor, single point]
COc1ccc(-n2c(C)cc(C(=O)COc3ccc(-n4cnnn4)cc3)c2C)cc1	inactive: -0.423%	–
CC(C)CC(=O)NC(=S)Nc1ccccn1	inactive: -1.04%	–
COC(=O)c1ccc(C23CC4(C2)[C@H](CN(Cc2cccnc2)[C@@H]4c2ccccc2)C3c2ccccc2)cc1 (some centres not stated)	–	inconclusive: 3.98 µM [inhibitor, full curve, poor fit]
CCOC(=O)C1=CN(CC)S(=O)(=O)NC1c1cccc(OC)c1 (configuration not stated)	inactive: 0.554%	–
CCCc1cc(=O)[nH]c(SCC(=O)NCCCC(=O)OCC)n1	inactive: 0.57%	–
CN(C)CCCN(C(=O)c1ccc(S(=O)(=O)N2CCCCCC2)cc1)c1nc2cc3c(cc2s1)OCO3	–	inconclusive: 35.5 µM [inhibitor, single point]
CCOC(=O)C1CCCN(S(=O)(=O)c2cc3c(cc2Cl)NC(=O)CO3)C1 (configuration not stated)	–	inconclusive: 35.5 µM [inhibitor, single point]
CCOC(=O)c1ccc(Nc2nc(N)c3cc(OC)c(OC)cc3n2)cc1	–	inconclusive: 17.8 µM [inhibitor, single point]
CCOc1ccc(OCC)c(NC(=O)c2nnn(CC(=O)Nc3cc(C)cc(C)c3)c2N)c1	–	inconclusive: 25.1 µM [inhibitor, single point]
CCCOCc1cc(CN2CCN(c3cccc(Cl)c3)CC2)c(O)c2ncccc12	–	inconclusive: 3.55 µM [inhibitor, full curve, poor fit]

Reference: PubChem BioAssay AID588855 (National Center for Advancing Translational Sciences (NCATS), 2011)
